Experimental data taken from paper PMC8860585.
These are yes or no findings as the source states them, for the method shown. In cells and extracts the contact can be indirect. Some binding calls cover weakened binding; strength is not graded here. Tags and fused reporters may be left off the sequences shown.

By UniProt entry, the sequences of proteins in these tests, tags left out.
UniProt Q9HAW4: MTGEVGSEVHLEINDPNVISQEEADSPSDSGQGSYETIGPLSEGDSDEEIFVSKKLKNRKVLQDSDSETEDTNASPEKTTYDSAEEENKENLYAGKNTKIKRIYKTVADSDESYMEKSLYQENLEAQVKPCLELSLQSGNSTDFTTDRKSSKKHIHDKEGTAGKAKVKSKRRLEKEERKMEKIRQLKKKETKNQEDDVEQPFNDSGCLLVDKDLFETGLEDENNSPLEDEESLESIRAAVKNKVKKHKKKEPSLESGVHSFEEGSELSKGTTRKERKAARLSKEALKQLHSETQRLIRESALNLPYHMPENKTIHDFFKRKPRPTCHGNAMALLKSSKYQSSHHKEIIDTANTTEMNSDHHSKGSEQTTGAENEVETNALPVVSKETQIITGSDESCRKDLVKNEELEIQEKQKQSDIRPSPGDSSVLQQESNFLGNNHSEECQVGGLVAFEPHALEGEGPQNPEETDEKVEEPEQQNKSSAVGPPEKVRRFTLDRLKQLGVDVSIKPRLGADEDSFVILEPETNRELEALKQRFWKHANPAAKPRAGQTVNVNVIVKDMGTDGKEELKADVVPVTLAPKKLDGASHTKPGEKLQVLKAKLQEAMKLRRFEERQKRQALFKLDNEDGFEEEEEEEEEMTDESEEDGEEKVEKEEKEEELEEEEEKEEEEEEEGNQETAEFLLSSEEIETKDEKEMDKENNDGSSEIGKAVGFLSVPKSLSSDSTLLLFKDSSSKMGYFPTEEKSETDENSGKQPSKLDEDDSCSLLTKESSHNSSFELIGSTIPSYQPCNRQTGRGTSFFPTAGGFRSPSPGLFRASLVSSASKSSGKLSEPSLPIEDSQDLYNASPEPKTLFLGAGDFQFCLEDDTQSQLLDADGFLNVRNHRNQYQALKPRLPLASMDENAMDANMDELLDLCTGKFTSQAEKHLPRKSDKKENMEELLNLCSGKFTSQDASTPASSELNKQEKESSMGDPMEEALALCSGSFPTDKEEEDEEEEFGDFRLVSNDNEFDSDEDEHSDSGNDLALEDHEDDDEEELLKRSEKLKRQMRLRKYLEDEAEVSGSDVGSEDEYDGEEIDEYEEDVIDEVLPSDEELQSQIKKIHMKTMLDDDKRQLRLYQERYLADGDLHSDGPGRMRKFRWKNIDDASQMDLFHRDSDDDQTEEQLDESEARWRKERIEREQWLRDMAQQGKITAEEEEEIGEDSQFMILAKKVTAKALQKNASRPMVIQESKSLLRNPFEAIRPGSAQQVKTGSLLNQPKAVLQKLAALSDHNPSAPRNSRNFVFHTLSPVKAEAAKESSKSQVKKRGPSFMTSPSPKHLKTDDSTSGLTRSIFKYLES

Target: FLAG-CLASPIN (human) (UniProt Q9HAW4)
Experiment: co-IP; HEK293T cells co-transfected with tagged proteins, lysed in NETN buffer, anti-FLAG M2 beads 4 h, 4°C, immunoblot; in some panels cells mock-treated or treated with 2 mM HU for 1 h, or transfected with siNC or siTRIM21

binding: binds
B1: HA-TIPIN (protein, UniProt Q9BVW5 1-301)
chain: MLEPQENGVIDLPDYEHVEDETFPPFPPPASPERQDGEGTEPDEESGNGAPVRVPPKRTVKRNIPKLDAQRLISERGLPALRHVFDKAKFKGKGHEAEDLKMLIRHMEHWAHRLFPKLQFEDFIDRVEYLGSKKEVQTCLKRIRLDLPILHEDFVSNNDEVAENNEHDVTSTELDPFLTNLSESEMFASELSRSLTEEQQQRIERNKQLALERRQAKLLSNSQTLGNDMLMNTPRAHTVEEVNTDEDQKEESNGLNEDILDNPCNDAIANTLNEEETLLDQSFKNVQQQLDATSRNITEAR
